In all, about 33,000 sequences were measured (“E-score (-0.5 to 0.5)”: median about -0.017, highest 2% from about 0.3 on). The list shows a part of the results.
target: T1, Sut1 (UniProt P53032); assay: PBM E-score (8-mer binding enrichment) (E-score (-0.5 to 0.5)); higher = stronger / more preferred TF binding; most listed sequences are background and not binding sites; conditions: protein concentration: 200 nM; construct: GST-full length
T1 sequence: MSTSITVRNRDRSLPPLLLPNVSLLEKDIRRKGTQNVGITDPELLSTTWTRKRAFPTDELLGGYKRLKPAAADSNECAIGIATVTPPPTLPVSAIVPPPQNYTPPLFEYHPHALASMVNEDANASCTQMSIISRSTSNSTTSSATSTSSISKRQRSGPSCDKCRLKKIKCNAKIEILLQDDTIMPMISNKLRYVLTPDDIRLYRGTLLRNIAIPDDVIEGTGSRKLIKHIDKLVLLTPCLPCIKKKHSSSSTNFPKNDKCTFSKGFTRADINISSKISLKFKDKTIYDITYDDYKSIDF
Method in brief: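 Universal all-10-mer Agilent arrays, double-stranded by primer extension on fresh or once-stripped slides, were probed with about 100-200 nM GST-tagged yeast transcription factors made by PURExpress. Fluorescent anti-GST detected bound protein, and masliner normalised the scans. E-scores from the Universal PBM Analysis Suite were given to each ungapped eight-base word pooled with its reverse complement.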

Going from GCGGATCC to CCACAAGG, the “PBM E-score” value falls from -0.195 to -0.201.

Going from AATTCATG to CCACTAGC, the “PBM E-score” value falls from 0.173 to -0.274.

Compared with GCCCGTAA, AGATCTAA is lower in “PBM E-score” value: -0.0212 for the first, -0.0882 for the second.

First: AGAGTGCG
Second: AAGGGTAT
The “PBM E-score” value of the first is lower: -0.00074 for the first, 0.0504 for the second.

Compared with GAAGTTGA, CGACCGAA is lower in “PBM E-score” value: 0.0192 for the first, -0.0737 for the second.

Compared with CAGAGAAG, GGAATAGA is higher in “PBM E-score” value: -0.0543 for the first, 0.226 for the second.

Compared with CCATAATC, AGGCTGAC is lower in “PBM E-score” value: 0.171 for the first, -0.245 for the second.

First: AAGCTAGC
Second: ATGCCGTG
The “PBM E-score” value of the first is higher: -0.0715 for the first, -0.0935 for the second.

First: ATGAACAG
Second: ACTGACAG
The “PBM E-score” value of the first is lower: 0.0319 for the first, 0.0545 for the second.

Compared with CAGGCGTC, ATGAATAG is higher in “PBM E-score” value: -0.228 for the first, 0.218 for the second.

Compared with CTCCTCCA, AGAGGAAC is higher in “PBM E-score” value: -0.147 for the first, 0.0422 for the second.

Compared with CCCTTAGG, GTGAAAAA is higher in “PBM E-score” value: -0.185 for the first, 0.164 for the second.

Compared with AGCGTTAG, ACGAGAGT is higher in “PBM E-score” value: -0.151 for the first, -0.0593 for the second.

Compared with CAATCGAC, AGGTTTCC is lower in “PBM E-score” value: -0.0145 for the first, -0.0706 for the second.

First: AGCTTAGC
Second: AAAGCTGA
The “PBM E-score” value of the first is lower: -0.193 for the first, 0.0347 for the second.

Compared with GTTATTTA, ATATACGC is lower in “PBM E-score” value: 0.257 for the first, -0.0552 for the second.

Going from CGAAGTCC to TGCCCGCA, the “PBM E-score” value falls from 0.378 to -0.014.

Going from GCCGCTGA to AATGCTGA, the “PBM E-score” value falls from 0.168 to -0.118.

Compared with GTATAAGA, GACCCTCA is lower in “PBM E-score” value: 0.103 for the first, -0.194 for the second.

Compared with CCCACCTC, GAGACAGC is higher in “PBM E-score” value: -0.27 for the first, -0.0584 for the second.

Going from AGCTTACG to GCAGATAA, the “PBM E-score” value falls from 0.107 to 0.0401.

Compared with AATTATGA, CCAAGTCG is lower in “PBM E-score” value: 0.273 for the first, -0.124 for the second.

First: CGCCTAAG
Second: ATCGTGCG
The “PBM E-score” value of the first is lower: -0.2 for the first, 0.108 for the second.

Compared with CGCCACTA, CGGAGACG is higher in “PBM E-score” value: -0.0262 for the first, 0.204 for the second.

Going from CGAACTGA to GAACTCCA, the “PBM E-score” value rises from -0.0336 to 0.15.

First: TCCACAGA
Second: AGACACCA
The “PBM E-score” value of the first is higher: -0.0655 for the first, -0.0822 for the second.

Going from AGAGTACA to CCTGTTGA, the “PBM E-score” value falls from 0.0303 to -0.0514.

Going from ACCCCGCA to ATTACGGG, the “PBM E-score” value falls from -0.00538 to -0.0151.

First: AGTTGTAT
Second: GAATATGC
The “PBM E-score” value of the first is higher: 0.141 for the first, 0.0981 for the second.

First: GCAAGCCA
Second: TAAGATCA
The “PBM E-score” value of the first is lower: -0.285 for the first, 0.0673 for the second.

Going from GATACGGA to CTACGGAC, the “PBM E-score” value falls from 0.364 to 0.169.

First: ATTGGCAC
Second: GAGCGTTA
The “PBM E-score” value of the first is lower: -0.147 for the first, 0.00231 for the second.

First: AGATCGCT
Second: ATTCAAAT
The “PBM E-score” value of the first is lower: -0.0499 for the first, 0.228 for the second.

First: CTCGCTAA
Second: AAAAACAG
The “PBM E-score” value of the first is lower: -0.151 for the first, 0.0942 for the second.

First: AGGCAAAT
Second: GACTTGCA
The “PBM E-score” value of the first is lower: -0.014 for the first, 0.109 for the second.

First: AGCAATAA
Second: AACGGAAC
The “PBM E-score” value of the first is lower: 0.0469 for the first, 0.27 for the second.

Going from TCGACCCA to ATGCATGC, the “PBM E-score” value falls from 0.101 to 0.0631.

First: AGGCGAGG
Second: ACAAACTG
The “PBM E-score” value of the first is lower: -0.289 for the first, -0.106 for the second.

First: ATGTTATC
Second: CGGGAAGA
The “PBM E-score” value of the first is higher: 0.192 for the first, 0.138 for the second.

Compared with GCCAGACA, AGTGCTGG is lower in “PBM E-score” value: 0.102 for the first, -0.0738 for the second.

Going from CTACTGAC to ATACCGGG, the “PBM E-score” value rises from -0.21 to 0.0371.

Compared with GGTGTCAC, AGAACTAT is higher in “PBM E-score” value: -0.101 for the first, 0.225 for the second.

Going from TGTATCAA to ACCCGAGC, the “PBM E-score” value falls from 0.134 to 0.0954.

First: ATTCTCTG
Second: CGCCTCCG
The “PBM E-score” value of the first is lower: -0.16 for the first, 0.0957 for the second.

First: AGTTATCA
Second: GAGCTATA
The “PBM E-score” value of the first is higher: 0.218 for the first, -0.106 for the second.

Compared with CGTGGAGA, ATGAGCGG is lower in “PBM E-score” value: -0.184 for the first, -0.211 for the second.

First: GGCTTAAC
Second: ACGATTCG
The “PBM E-score” value of the first is higher: 0.153 for the first, 0.0762 for the second.

Compared with GAGGCAAC, GTTGGTAA is higher in “PBM E-score” value: -0.175 for the first, 0.201 for the second.

Going from ACGTCCAA to CGCTGCTA, the “PBM E-score” value falls from -0.0482 to -0.0657.

Compared with TCCACCGA, AAGGGATG is lower in “PBM E-score” value: -0.03 for the first, -0.0899 for the second.

Going from GCTTATAC to TCTGGAAA, the “PBM E-score” value rises from -0.0717 to -0.00485.

Going from AGAGAGTA to CCCAGGTA, the “PBM E-score” value falls from -0.0447 to -0.221.

First: CAATGGGC
Second: CCCCTCGA
The “PBM E-score” value of the first is lower: -0.172 for the first, -0.146 for the second.

Compared with CGCGATAG, ATCGTACG is higher in “PBM E-score” value: 0.0227 for the first, 0.0424 for the second.

First: AACAGCCC
Second: GAGAACTC
The “PBM E-score” value of the first is lower: -0.0864 for the first, 0.0403 for the second.

First: AAACGCAC
Second: AGTGCCTC
The “PBM E-score” value of the first is higher: -0.0256 for the first, -0.245 for the second.

First: AATTAATC
Second: GTTGCAAA
The “PBM E-score” value of the first is higher: 0.257 for the first, 0.189 for the second.

Compared with AATAGCCA, CTCCGCGC is higher in “PBM E-score” value: 0.0202 for the first, 0.327 for the second.

AGGGTCTC and CTGCATGC are the same in “PBM E-score” value: -0.194 for the first, -0.194 for the second.

First: GACACTAA
Second: AAGATCAA
The “PBM E-score” value of the first is lower: -0.0944 for the first, 0.0587 for the second.

First: CCGACTAA
Second: ATCTATGC
The “PBM E-score” value of the first is higher: 0.178 for the first, -0.00446 for the second.

Going from TCTCGTCA to GATCTCAC, the “PBM E-score” value falls from -0.0155 to -0.0534.

Compared with ACTCACTG, AAGTGTAA is higher in “PBM E-score” value: 0.0451 for the first, 0.0603 for the second.

Going from CAACGGCC to AACAACAA, the “PBM E-score” value rises from -0.142 to 0.138.

Going from CGTGTGCA to AAACGCGC, the “PBM E-score” value rises from -0.241 to -0.123.

First: CAAGTGGG
Second: CACCCGTC
The “PBM E-score” value of the first is higher: -0.173 for the first, -0.193 for the second.

Compared with ACAGGTAG, AGCAAGGA is higher in “PBM E-score” value: -0.207 for the first, -0.134 for the second.

Compared with AGCCATTG, AAAGTCAT is lower in “PBM E-score” value: 0.054 for the first, 0.00174 for the second.

Compared with AGGACTAA, CACGAGGG is lower in “PBM E-score” value: 0.155 for the first, -0.33 for the second.

Compared with GAGCGGAA, AATGTGAC is lower in “PBM E-score” value: 0.149 for the first, 0.0297 for the second.

Compared with AGATCCAC, AGTCGTAC is lower in “PBM E-score” value: 0.103 for the first, -0.0438 for the second.

Going from ATCCTCGG to AGAATAGC, the “PBM E-score” value falls from 0.157 to 0.0785.

Going from TGGAGCAA to ACGAGGGG, the “PBM E-score” value falls from -0.0175 to -0.289.

Compared with GCGTTGAC, CCCAATAA is higher in “PBM E-score” value: -0.146 for the first, 0.0503 for the second.

Compared with ACTGCGGG, ATCAGACG is lower in “PBM E-score” value: -0.0769 for the first, -0.174 for the second.

Going from GCAGGTTA to AAATGACT, the “PBM E-score” value rises from -0.0255 to 0.0507.

Going from TACTGCTA to AGGGCCCT, the “PBM E-score” value falls from -0.0311 to -0.282.

First: AAACACAT
Second: ATCTGCTC
The “PBM E-score” value of the first is higher: 0.0664 for the first, -0.0661 for the second.

First: CCTCAAAC
Second: CCACCCCG
The “PBM E-score” value of the first is higher: -0.0345 for the first, -0.0489 for the second.

Going from AATGTCTC to ATTCTAAG, the “PBM E-score” value rises from 0.0524 to 0.118.

Compared with CCCTCCCC, AACAATGA is higher in “PBM E-score” value: -0.157 for the first, 0.122 for the second.

First: CTAGCTCC
Second: AGGTCCGA
The “PBM E-score” value of the first is lower: 0.15 for the first, 0.457 for the second.

Compared with ACTCTTCT, GAAGAGGA is lower in “PBM E-score” value: -0.0622 for the first, -0.143 for the second.

First: CCCGCGCC
Second: AGTAGCCG
The “PBM E-score” value of the first is lower: -0.198 for the first, 0.0748 for the second.

Going from ACTTCCAG to AGAACGTA, the “PBM E-score” value rises from -0.166 to -0.0667.

First: AATTAGCG
Second: TCATTGCA
The “PBM E-score” value of the first is higher: 0.138 for the first, -0.159 for the second.
